Hit rate of the full screen: of about 46,000 compounds, about 60 (0.1%) were called active. Inconclusive results (about 3%) are left out. Calls follow the shape of the dose curve; as a rule, active = well fitted inhibition curve with a large enough effect; inconclusive = small, poorly fitted or top-dose-only effect; inactive = no such curve, though single readings can be large or run the other way. Some of the results follow.
Assay: Primary qHTS assay for Inhibitors of ovarian cancer metastasis using an organotypic tumor microenvironment (TME) model. Also: nearly all actives have a fitted effect of over 65% in size.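 As to activity change, negative = inhibition: plate controls were DMSO wells for no effect and tomatine positive control wells for full effect.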
Conditions: SKOV3ip1-GFP adhesion/invasion on 3D omental model, fluorescence; series mostly up to 45.8 µM; activity change, negative = inhibition: at the top concentration
Procedure, shortened: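 qHTS, 4-pt dose (0.36-46 umol/L); SKOV3ip1-GFP, 1,200 cells/well, no FBS; primary omental fibroblast/mesothelial co-culture 48 h pre-grown; 2 h RT + 16 h 37 C; PBS wash, 4% PFA; GFP count 488/509 nm.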

Activity change, negative = inhibition, inactive:
COc1ccccc1CNC(=O)C(Cc1ccccc1)NS(=O)(=O)c1ccc2c(c1)oc(=O)n2C (stereo not given) 1.57%
CC(C)NC(=O)Nc1ccc2c(c1)N(C)C(=O)c1ccccc1S2 2.3%
Cc1nn(Cc2noc(C(=O)NCc3ccc(F)cc3)n2)c(C)c1Br -7.87%
CCc1nnc(NC(=O)CSc2nc3c([nH]c4ccccc43)c(=O)n2-c2cc(C)cc(C)c2)s1 6.81%
CC1CCCCN1Cc1c(O)ccc2c(=O)c(-c3cccc(Cl)c3)c(C(F)(F)F)oc12 (stereo not given) -9.49%
Cc1ccc(-c2noc(COc3ccc(Br)c(C)c3)n2)cc1 -1.79%
O=C(C1CCC(CNS(=O)(=O)c2ccc(Br)s2)CC1)N1CCN(c2ccccc2)CC1 (stereo not given) -0.148%
Cc1nnc(SCc2cc(=O)n3c(C)cccc3n2)s1 -2.72%
Clc1cccc(CNc2ncnc3c2nc2n3CCCC2)c1 4.49%
COc1ccc(Cl)cc1NC(=O)CCc1nc(-c2ccccc2F)no1 -26.9%
Cn1cc(C2=C(c3c4n(c5ccccc35)CCC(CN)C4)C(=O)NC2=O)c2ccccc21 (stereo not given) -21.6%
CCOc1ccc(N2CC(c3nc(-c4cc(OC)c(OC)c(OC)c4)no3)CC2=O)cc1 (stereo not given) 4.28%
Cc1ccc(C)c(NC(=O)C2CCCN(S(=O)(=O)c3c(C)noc3/C=C/N(C)C)C2)c1 (stereo not given) -16.9%
Cc1ccc(-n2nnc3c(sc4nc(C)c(C)cc43)c2=O)cc1Cl 7.95%
COCCNC(=O)C1CCN(S(=O)(=O)c2ccc3c(c2)CCCN3C(C)=O)CC1 11.1%
O=C1C(CCC(O)c2ccc(F)cc2)C(c2ccc(O)cc2)N1c1ccc(F)cc1 (stereo not given) 4.93%
CCOC(=O)c1[nH]c(C)c(CCC(=O)N2CCN(c3ccccc3)CC2)c1C 3.65%
COc1ccc(-c2nc3n(n2)C(c2ccc(OC)cc2)C(C(=O)Nc2cccnc2)=C(C)N3)cc1 (stereo not given) 4.22%
CC(=O)OCC#CCSc1nnc(-c2cccc(Br)c2)o1 -7.01%
CCOC(=O)c1c(C)oc2nc(C)nc(NCC3CCN(Cc4ccc(Cl)cc4)CC3)c12 0.36%
COCCCNC(=O)Cn1c(=O)n(CCCC(=O)NCc2ccc(C)cc2)c(=O)c2ccccc21 -8.42%
CCCC(=O)N(c1ccc2oc(-c3ccccc3)c(C(=O)OCC)c2c1)S(=O)(=O)c1ccc(C)cc1 -1.61%
Cc1ccc(/C=C(\C#N)c2nc(-c3cc4c(ccc5ccccc54)oc3=O)cs2)cc1 4.7%
O=C(NCC(c1ccc2c(c1)OCO2)N1CCOCC1)c1ccc(F)cc1 (stereo not given) -39.9%
CCOc1ccc(-n2c(=O)c3c4c(sc3n(Cc3cccc(Cl)c3)c2=O)CCCC4)cc1 3.76%
CC1=C(c2ccc(C)c(C)c2)S(=O)(=O)N=C1N1CCN(c2cccc(C(F)(F)F)c2)CC1 -7.66%
CC(C)CN(c1ccccc1)S(=O)(=O)c1nnc(NC(=O)c2ccco2)s1 9.01%
Cc1cccc(C(=O)Nc2ccccc2-c2nc(-c3ccccc3)no2)c1 -8.87%
CC(=O)c1c(C)oc2ccc(N(C(=O)Oc3ccccc3)S(=O)(=O)c3ccc(Br)cc3)cc12 -17.4%
CCn1cc(C(=O)N2CCN(c3ccccc3OC)CC2)c(=O)c2cc(S(=O)(=O)N3CCCCC3)ccc21 -7.28%
CCOc1ccc(Sc2cc(C(=O)NCCc3ccc(OC)c(OC)c3)c3ccccc3n2)cc1 -7.73%
COc1cc(OC)c(NC(=O)c2oc3ccc4c(c3c2C)C(=O)CC(C)(C)O4)cc1Cl -3.52%
COc1ccc(NC(=O)N2CCc3c(sc4c3CCCC4)C2c2ccc(F)cc2)cc1 (stereo not given) -1.01%
O=C(CCSCc1ccccc1F)N1CCN(c2ccc(F)cc2)CC1 -19.1%
Cn1cc(C(=O)NCc2ccc(F)cc2)c(=O)c2cc(S(=O)(=O)N3CCCCC3)ccc21 0.0717%
COc1ccc(NC(=O)c2ccc3snnc3c2)cc1OC 51.3%
Cc1ccc(NC(=O)Nc2nnc(N3CCCCC3)s2)c(C)c1 -5.66%
CCc1ccc(CNC(=O)c2cc3c(=O)oc4ccc(C)cc4c3s2)cc1 -9.22%

outcome, inactive:
COc1ccc(-c2nc3scc(CCNS(=O)(=O)c4ccc(F)cc4F)n3n2)cc1OC
O=C(NCCc1ccccc1)c1ccc2c(c1)N(Cc1ccccc1Cl)C(=O)c1ccccc1S2
O=C1CC(c2nc3ccccc3n2CCCCOc2ccccc2)CN1c1ccccc1Cl (stereo not given)
CCOc1ccc(Cn2c(=O)oc3ccccc32)cc1
COc1ccc(-n2ncc3c(N4CCN(c5cccc(C)c5)C(C)C4)ncnc32)cc1 (stereo not given)
Cc1c(C(=O)N2CCCC2)oc2c1-c1nn(CC(=O)NCc3cccc(Br)c3)cc1CC2
NS(=O)(=O)c1ccc(NC(=O)CCn2c(=O)oc3ccccc32)cc1
O=C(Cn1c(=O)n(Cc2ccc3c(c2)OCO3)c(=O)c2ccccc21)Nc1cccc(Cl)c1
CCOc1ccc(N(C)S(=O)(=O)c2ccc3c(c2)C(C)(C)C(=O)N3C)cc1
Cn1c(=O)oc2cc(S(=O)(=O)CCC(=O)NCc3ccccc3)ccc21
COc1ccc(CSc2nc3ncccc3[nH]2)cc1
CCN(c1ccccc1)S(=O)(=O)c1nnc(NC(=O)COc2ccc(OC)cc2)s1
O=C(NC1CCCC1)c1c[nH]c2ccc(S(=O)(=O)Nc3cccc(C(F)(F)F)c3)cc2c1=O
COc1cccc(N2CC(NC(=O)c3ccc(S(=O)(=O)N4CCCC4)cc3)CC2=O)c1 (stereo not given)
CCCCN1CC(c2nc3ccccc3n2CCCCOc2c(C)cccc2C)CC1=O (stereo not given)
Cc1ccc(NC(=O)Cn2c(=O)n(-c3ccc(CC(=O)NCC4CCCO4)cc3)c(=O)c3ccccc32)cc1 (stereo not given)
COc1ccc(-c2nn(-c3ccccc3)cc2C(=O)Nc2ccccc2OC)cc1
O=C(O)c1cccc(NC(=O)c2cccc(S(=O)(=O)Nc3cccc(C(=O)O)c3)c2)c1
CCn1c(=O)c2cc(C(=O)N(C)c3cc(C)ccc3C)sc2c2ccccc21
CCOc1ccccc1NC(=O)Cn1c(=O)n(Cc2ccc(C(=O)NCCCOC)cc2)c(=O)c2ccccc21
CN(C)C(=O)c1ccc(S(=O)(=O)NCc2ccccc2Cl)s1
COc1cc(OC)cc(-n2c(=O)[nH]c3cc(C(=O)NCCc4ccc(C)cc4)ccc3c2=O)c1

— PubChem BioAssay AID1963576 (National Center for Advancing Translational Sciences (NCATS), 2024)
